In US20170326249A1, “ANTIBODY-DRUG CONJUGATE OF AN ANTI-GLYPICAN-3 ANTIBODY AND A TUBULYSIN ANALOG, PREPARATION AND USES” (Bristol-Myers Squibb Company, priority 2016, published 2017):

Experiments:
[1] = test system: Hep3B hepatocellular carcinoma cells; experiment: 3H thymidine incorporation proliferation assay, Hep3B; format: cell-based, human; settings: FIG. 11B
Protocol: The human tumor cell lines were obtained from the American Type Culture Collection (ATCC), P.O. Box 1549, Manassas, Va. 20108, USA, and cultured according to instructions from ATCC. Cells were seeded at 1.0×10^4 cells/well in 96-well plates. […] Plates were allowed to incubate for 72 h. The plates were pulsed with 1.0 μCi of ^3H-thymidine per well for the last 24 hours of the total incubation period, harvested, and read on a Top Count Scintillation Counter (Packard Instruments, Meriden, Conn.). The EC50 values—the ADC concentration at which cell proliferation was reduced by 50%—were determined using PRISM™ software, version 4.0 (GraphPad Software, La Jolla, Calif., USA).

Hep3B tumors = experiment: Hep3B xenograft study; format: in vivo, CB17. SCID mice; settings: 0.1 μmol/kg (FIG. 13A) and 0.03 μmol/kg (FIG. 13B), Q7D×2
Protocol: In this and other xenograft studies described herein, CB17. SCID mice were used.
ADCs were prepared combining drug linker compound (IV) and antibodies A, B, C, and E, to produce ADCs respectively designated ADC A, ADC B, ADC C, and ADC E. In vivo xenograft studies were performed for these four ADCs alongside ADC 3.1, a vehicle (formulation buffer) control, and an ADC control (an ADC of an anti-CD70 antibody with drug-linker (IV)), using Hep3B cells. Dosing was 0.1 μmol/kg (5 mg/kg) in one case (FIG. 13A) and 0.03 μmol/kg (1.5 mg/kg) in the other case (FIG. 13B). The dosing frequency was Q7D×2.

[2] = FACS study of the binding of ADCs (FIG. 11C); format: cell-based
Glypican-3 = Glypican-3 (Homo sapiens, UniProt P51654); experiment: Biacore binding affinity of antibodies to glypican-3; settings: variant antibodies, Table 2

| Molecule | activity compared to ADC3.1 [1] | efficacy in reducing the tumor volume, comparison of ADCs (Hep3B tumors) | FACS binding [2] | koff × 10^−4 (1/s) (Glypican-3) | kon × 10^4 (1/Ms) (Glypican-3) |
| --- | --- | --- | --- | --- | --- |
| ADC A: ADC of antibody A with drug-linker of formula (IV) (conjugate) heavy: EVQLVQSGAEVKKPGESLKISCKGSGYSFTSYWIAWVRQMPGKGLEWMGIIFPGDSHTGYSPSFQGQVTISADRSIRTAYLQWSSLKASDTAMYYCARTRQGYFDYWGQGTLVTVSSASTKGPSVFPLAPSSKSTSGGTAALGCLVKDYFPEPVTVSWNSGALTSGVHTFPAVLQSSGLYSLSSVVTVPSSSLGTQTYICNVNHKPSNTKVDKRV[human IgG1 Fc not spelt out] light: [about 200 residues not spelt out] | slightly more active than ADC3.1 | none of ADCs A, B, C or E was as efficacious as antibody GPC3.1 | slightly more active than the other three |  |  |
| Antibody B: variant of antibody GPC3.1; heavy chain variable region SEQ ID NO:25, kappa SEQ ID NO:26 (antibody, listed as Homo sapiens, V domains shown, Antibody B heavy chain variable region; Antibody B kappa chain variable region) VH: EVQLVQSGAEVKKPGESLKISCKGSGYSFTRYWIAWVRQMPGKGLEWMGIIFPGDSHTGYSPSFRGQVTISADKSISTAYLQWSSLKASDTAMYYCARTREGYFDYWGQGTLVTVSS VL: [about 100 residues not spelt out] |  |  |  | 36 × 10^−4 1/s | 170 × 10^4 1/Ms |
| ADC C: ADC of antibody C with drug-linker of formula (IV) (conjugate) heavy: EVQLVQSGAEVKKPGESLKISCKGSGYSFTRYWIAWVRQMPGKGLEWMGIIFPGDSHTGYSPSFQGQVTISADRSISTAYLQWSSLKASDTAMYYCARTREGYFDYWGQGTLVTVSSASTKGPSVFPLAPSSKSTSGGTAALGCLVKDYFPEPVTVSWNSGALTSGVHTFPAVLQSSGLYSLSSVVTVPSSSLGTQTYICNVNHKPSNTKVDKRV[human IgG1 Fc not spelt out] light: [about 200 residues not spelt out] | slightly more active than ADC3.1 | none of ADCs A, B, C or E was as efficacious as antibody GPC3.1 |  |  |  |
| Antibody A: variant of antibody GPC3.1; heavy chain variable region SEQ ID NO:23, kappa SEQ ID NO:24 (antibody, listed as Homo sapiens, V domains shown, Antibody A heavy chain variable region; Antibody A kappa chain variable region) VH: EVQLVQSGAEVKKPGESLKISCKGSGYSFTSYWIAWVRQMPGKGLEWMGIIFPGDSHTGYSPSFQGQVTISADRSIRTAYLQWSSLKASDTAMYYCARTRQGYFDYWGQGTLVTVSS VL: [about 100 residues not spelt out] |  |  |  | 29 × 10^−4 1/s | 110 × 10^4 1/Ms |
| ADC B: ADC of antibody B with drug-linker of formula (IV) (conjugate) heavy: EVQLVQSGAEVKKPGESLKISCKGSGYSFTRYWIAWVRQMPGKGLEWMGIIFPGDSHTGYSPSFRGQVTISADKSISTAYLQWSSLKASDTAMYYCARTREGYFDYWGQGTLVTVSSASTKGPSVFPLAPSSKSTSGGTAALGCLVKDYFPEPVTVSWNSGALTSGVHTFPAVLQSSGLYSLSSVVTVPSSSLGTQTYICNVNHKPSNTKVDKRV[human IgG1 Fc not spelt out] light: [about 200 residues not spelt out] | slightly more active than ADC3.1 | none of ADCs A, B, C or E was as efficacious as antibody GPC3.1 |  |  |  |
| Antibody C: variant of antibody GPC3.1; heavy chain variable region SEQ ID NO:27, kappa SEQ ID NO:28 (antibody, listed as Homo sapiens, V domains shown, Antibody C heavy chain variable region; Antibody C kappa chain variable region) VH: EVQLVQSGAEVKKPGESLKISCKGSGYSFTRYWIAWVRQMPGKGLEWMGIIFPGDSHTGYSPSFQGQVTISADRSISTAYLQWSSLKASDTAMYYCARTREGYFDYWGQGTLVTVSS VL: [about 100 residues not spelt out] |  |  |  | 16 × 10^−4 1/s | 170 × 10^4 1/Ms |
